Structures are written as SMILES. In all, about 110,000 compounds were measured (“z-score”: median about -0.1, highest 2% from about 2 on). The list shows a part of the results. Active and inactive are the calls of the source.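 The calls were made as follows: active = z-score in the third read window above 3 or below -3; inactive = the rest.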

The test deals with Metabotropic glutamate receptor 8 (Rattus norvegicus) (UniProt P70579). The test is described as follows: mGluR8 Gi/Go-coupled signaling modulation – cell-based, rat, thallium flux, HTS, primary screen (AID 488969). Conditions: HEK293 rat mGluR8, GIRK (G protein-gated inwardly rectifying potassium channel) thallium flux, FluoZin2; at 10 µM; stronger effect = higher value; submaximal glutamate (EC20) added with thallium.
UniProt P70579, sequence (P70579 whole entry, looked up): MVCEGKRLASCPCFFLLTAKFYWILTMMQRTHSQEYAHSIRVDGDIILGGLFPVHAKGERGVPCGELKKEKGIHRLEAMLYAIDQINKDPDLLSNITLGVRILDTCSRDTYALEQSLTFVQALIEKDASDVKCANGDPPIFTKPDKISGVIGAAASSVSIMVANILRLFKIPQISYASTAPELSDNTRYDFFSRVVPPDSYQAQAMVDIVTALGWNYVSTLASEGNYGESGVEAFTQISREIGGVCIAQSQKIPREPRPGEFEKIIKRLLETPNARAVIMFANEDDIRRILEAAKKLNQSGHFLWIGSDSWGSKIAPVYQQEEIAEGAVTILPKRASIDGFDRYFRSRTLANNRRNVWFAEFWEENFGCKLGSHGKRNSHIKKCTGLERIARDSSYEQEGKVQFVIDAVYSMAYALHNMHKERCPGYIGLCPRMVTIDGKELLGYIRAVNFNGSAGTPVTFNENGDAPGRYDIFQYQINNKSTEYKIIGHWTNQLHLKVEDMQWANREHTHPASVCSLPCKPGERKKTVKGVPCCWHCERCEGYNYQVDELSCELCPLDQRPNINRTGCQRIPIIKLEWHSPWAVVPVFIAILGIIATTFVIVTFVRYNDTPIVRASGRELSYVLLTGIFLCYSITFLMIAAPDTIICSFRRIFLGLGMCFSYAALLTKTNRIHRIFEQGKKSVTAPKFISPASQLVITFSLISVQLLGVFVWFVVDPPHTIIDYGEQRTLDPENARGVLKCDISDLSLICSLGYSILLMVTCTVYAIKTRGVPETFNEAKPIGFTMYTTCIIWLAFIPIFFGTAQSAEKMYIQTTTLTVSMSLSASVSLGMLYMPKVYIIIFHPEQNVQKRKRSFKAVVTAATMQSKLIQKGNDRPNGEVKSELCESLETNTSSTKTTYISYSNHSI
In the case of `CCOC(=O)C1CCCN(c2nc(C)nc3c2oc2ccccc23)C1` (stereo not given), the z-score was -0.412.

With `CC(=O)c1ccc(C(C)(C)c2ccc(C(C)=O)s2)s1`, the z-score was -0.351.

In turn, `Oc1[nH]c2ccccc2c1N=Nc1ccc(C(F)(F)F)cn1` yielded a z-score of -0.0662.

As for `C=CCNCCCCOc1ccccc1-c1ccccc1`, the z-score is 0.293.

On to `C=CCn1c(COc2ccc(F)cc2)nnc1SCC(=O)N1CC(=O)Nc2ccccc21`, for which the z-score is -0.202.

Take `Cn1c(=O)c2c(nc(CN3CCC(C(N)=O)CC3)n2Cc2ccccc2F)n(C)c1=O`: the z-score stood at 0.724.

With `CCCc1cc(=O)[nH]c(SCc2cc(=O)oc3c(C)c(C)ccc23)n1`, the z-score is -1.49.

Compound `CCOc1ccc(OCCN2C(=O)NC(Cc3c[nH]c4ccccc34)C2=O)cc1` (stereo not given) yielded a z-score of -0.00423.

Compound `O=C(CSc1nnc(CN2CCOCC2)n1-c1ccccc1)N1CCc2ccccc21` yielded a z-score of 0.0622.

For `CCOC(=O)c1c(-c2ccccc2)nc2ccc(Cl)cn12`, the z-score was -0.321.

In turn, `CC(C)Cn1c(O)c(/C=C2\C=NN=C2c2ccccc2)sc1=S` returned a z-score of -0.103.

Take `COc1ccc(CCN2C(=O)C(Oc3ccccc3C)C2c2ccc3c(c2)OCO3)cc1OC` (stereo not given): the z-score was -0.433.

In turn, `O=c1cc(CNCCCO)c2ccccc2[nH]1` returned a z-score of 0.351.

`CSc1cccc(NC(=O)CN(C)S(=O)(=O)c2ccc(F)cc2)c1`: the z-score was -0.437.

`O=C(CNC(=O)c1cc2ccccc2o1)NCc1cccs1` showed a z-score of 0.0265.

Consider `c1cnc(SCCCOc2ccc3ccccc3c2)nc1`, for which the z-score was -0.054.

Compound `COc1cc(/C=N/NC(=O)c2csc3c2CCCC3)cc(OC)c1O` had a z-score of -0.296.

In turn, `Cc1ccc(S(=O)(=O)c2c(N)n(NC(=O)c3ccccc3C)c3nc4ccccc4nc23)cc1` showed a z-score of -0.679.

Compound `Cc1ccnc(NC(=O)c2cccc(NS(=O)(=O)c3ccccc3C)c2)c1` yielded a z-score of -0.409.

The compound `CCc1cccc(C)c1NC(=O)Cn1c(NCCO)nc2ccccc21` gave a z-score of -0.249.

Compound `Cc1cc(C(=O)CN2C(=O)c3ccccc3C2=O)c(C)n1Cc1cccs1` gave a z-score of 0.433.

`Cc1cccc(NC(=O)NC(C)C(c2cccs2)N2CCOCC2)c1` (stereo not given) registered a z-score of 0.122.

With `Cc1nc2sc(C(c3ccco3)N3CCN(c4ccccc4F)CC3)c(O)n2n1` (stereo not given), the z-score was -0.809.

As to `O=C(c1ccccc1)n1ccc(-c2cnc(-c3ccccc3)s2)n1`, the z-score is -0.145.

On to `CCOC(=O)c1nc2ccccc2s1`, for which the z-score is -0.121.

On to `Cc1cc(C)nc(SCC(=O)N/N=C\C(Br)=C\c2ccccc2)n1`, for which the z-score is -0.184.

`CC1CCCCN1C(=S)NCCc1ccccc1` (stereo not given) returned a z-score of 0.0194.

On to `N#Cc1c(SCc2cccc(Cl)c2)sc(C(=O)c2ccccc2)c1N`, for which the z-score is -0.00374.

`CC(C)[C@H](NS(=O)(=O)c1ccccc1)C(=O)OCC(=O)N1N=C(c2ccc(Cl)cc2)CC1c1ccco1` (stereo not given in full) returned a z-score of -0.27.

Compound `CCOc1ccc2c(c1)-c1c(ssc1=S)C(C)(C)N2C(=O)CSC1=NCCS1` showed a z-score of -0.153.

`CCCCN1C(=O)C(O)=C(C(C)=O)C1c1ccccc1` (stereo not given) showed a z-score of -1.99.

Compound `N#C/C(=C\c1cn(-c2ccccc2)nc1-c1cc2ccccc2o1)c1nc2ccccc2[nH]1` registered a z-score of -0.302.

In turn, `Cc1ccc(OCCn2c(Br)nc3c2c(=O)n(C)c(=O)n3C)cc1` registered a z-score of -0.14.

The compound `COc1ccc(N2CCN(C(=O)c3cccc(N4C(=O)C5CC=CC(C)C5C4=O)c3)CC2)cc1` (stereo not given) showed a z-score of -0.43.

`Cn1c(C(=O)O)c(CC(=O)Nc2ccc3c(c2)OCCO3)c2ccccc21` gave a z-score of -0.0244.

`C1=C2C[N+]3(CCCC3)CC2Cc2ccc3ccccc3c21` (stereo not given) displayed a z-score of -0.0544.

`Cc1c(Cl)cccc1NC(=S)NN1CCOCC1`: the z-score is -0.264.

The compound `Cc1nnsc1C(=O)Nc1cccc(Cl)c1Cl` gave a z-score of 0.148.

For the compound `O=C(Nn1c(C2CCCCC2)nc2ccccc2c1=O)c1ccc([N+](=O)[O-])cc1Cl`, the z-score is active: -3.19.

`COCCn1c(-c2ccccc2F)n[nH]c1=S` had a z-score of -0.0994.

In the case of `COc1ccc[nH]c1=O`, the z-score worked out at 0.516.

`COc1ccc(/C=C/C(=O)c2ccc(NC(=O)c3cccs3)cc2)cc1OC`: the z-score is -0.7.

As for `O=C(c1ccccc1F)N1CCN(c2ncccn2)CC1`, the z-score was -0.0494.

As for `Cc1cc(C)nc(SCc2nnc(SCC(=O)Nc3nc(-c4ccccc4)cs3)n2C)n1`, the z-score was -0.738.

For the compound `CCOC(=O)c1c(C)[nH]c(C(=O)OCCOc2ccccc2C)c1C`, the z-score was -0.0787.

As to `CCC(C)C(=O)Nc1cc(C(=O)OC)ccc1C(=O)OC` (stereo not given), the z-score was -0.319.

For the compound `CC1(C)CC(=O)/C(=C(\O)c2ccccc2)C(=NCCc2ccccc2)C1`, the z-score came to 0.802.

`CC(/C=N/N1CCN(c2ccccc2)CC1)=C\c1ccccc1` had a z-score of 0.136.

Compound `CCOC1Cc2ccccc2N(C(N)=O)c2ccccc21` (stereo not given) returned a z-score of -0.0561.

Compound `O=C(c1ccco1)n1nc(-c2ccccc2)nc1NCc1ccco1` had a z-score of 1.5.

Compound `O=[N+]([O-])c1cc(S(=O)(=O)Nc2cccc(C(F)(F)F)c2)ccc1-n1nnc2ccccc21` registered a z-score of -2.37.

As to `O=C(NC1CCCCCC1)c1ccc(N2CCCC2=O)cc1`, the z-score is -0.367.

In turn, `COc1ccc(C(CC(=O)Nc2cc(OC)cc(OC)c2)n2cccc2)cc1` (stereo not given) gave a z-score of -0.195.

In turn, `O=C(COC(=O)c1cc(-c2cccc3ccccc23)nc2ccccc12)NC1CCS(=O)(=O)C1` (stereo not given) showed a z-score of -0.675.

Compound `COc1ccc2[nH]c(C)c(CCNc3ccc(C(F)(F)F)cc3[N+](=O)[O-])c2c1` displayed a z-score of -0.383.

`COc1cccc2c1OC1(C)CC2/C(=C(\C)O)C(=O)N1` (stereo not given) displayed a z-score of 0.343.

Compound `CCCCNC(=O)c1cccc2c(=O)c(C)c(-c3ccccc3)oc12` showed a z-score of -0.618.

In the case of `CC(C)=CCCC1=CCC(/C(C)=N/NC(N)=O)CC1` (stereo not given), the z-score was -0.178.

On to `CN(C(=O)CSc1nnc2ccccn12)C1CCS(=O)(=O)C1` (stereo not given), for which the z-score turned out to be 0.0961.

Turning to `CC(C)c1cc(C(F)(F)F)n2nc(C(=O)O)cc2n1`, the z-score was found to be 0.207.

With `CC(=O)NCCc1ccc(S(=O)(=O)Nc2cccnc2)cc1`, the z-score came out at 0.754.

In turn, `Cc1cccn2cc(-c3ccc(F)cc3)nc12` showed a z-score of 1.36.

With `COc1ccc(NC(=O)CC2C(=O)N(c3ccc(Cl)cc3)C(=S)N2CCc2ccccn2)cc1` (stereo not given), the z-score came out at 0.904.

`COc1ccc(N(CC(=O)Nc2ccc(C)cn2)S(=O)(=O)c2c(C)nn(C)c2C)cc1` registered a z-score of -0.119.

In the case of `O=S(=O)(/N=C(\c1ccc(Cl)cc1)N1CCOCC1)c1ccccc1`, the z-score was -0.45.

Turning to `O=C(Nc1ccon1)c1cccc(S(=O)(=O)N2CCCCCC2)c1`, the z-score is -0.324.

`CN(C(=O)CC(NC(=O)c1ccccc1)(c1ccccc1)c1ccccc1)c1ccccc1`: the z-score was -0.934.

`N#Cc1ccc(C(=O)Nc2ccc(N3CCN(C(=O)c4ccco4)CC3)cc2)c(F)c1` yielded a z-score of -0.135.

The compound `Cc1cccc(C)c1NC(=O)C(NC(=O)CN1C(=O)c2ccccc2C1=O)c1ccccc1` (stereo not given) gave a z-score of -0.142.

Compound `CCO/C=N/c1c(C#N)c(CC#N)nn1-c1ccccc1` gave a z-score of -0.0375.

`COc1cc(CC(=O)OCC(=O)Nc2cc(S(=O)(=O)N3CCCC3)ccc2Cl)cc(OC)c1OC` had a z-score of -0.06.

For `Cc1ccccc1C(=O)N1CCC(C(=O)Nc2ccc3c(c2)OCCO3)CC1`, the z-score came to 0.144.

`CCCCNC(=S)NNC(=O)c1csc2c1CCC(C)C2` (stereo not given): the z-score was 0.319.

For `COC(=O)Nc1ccc(S(=O)(=O)N2CCCCC2)cc1`, the z-score came out at 0.127.

`CCOc1ccccc1NC(=O)C1CCCN(C(=O)NCc2ccccc2)C1` (stereo not given) registered a z-score of -0.122.

`COc1cc([N+](=O)[O-])ccc1NC(=O)C[n+]1cccc(C)c1` displayed a z-score of -0.0934.

On to `Cc1cccc(C(=O)N=c2c(C#N)cc3c(=O)n4cccc(C)c4nc3n2Cc2ccco2)c1`, for which the z-score was found to be 0.568.

Consider `O=C(NCc1ccco1)c1ccc(=O)oc1`, for which the z-score came to 0.28.

With `O=C(Nc1ccc2nc(-c3ccc4nc[nH]c4c3)[nH]c2c1)c1cccs1`, the z-score is -0.0282.

The compound `COc1ccc(S(=O)(=O)N2CCN(CCC(=O)Nc3ccccc3F)CC2)cc1` returned a z-score of -0.124.

`COCCn1c(SCC(=O)Nc2ncc(C)s2)nc2sc3c(c2c1=O)CCC3` came in with a z-score of -2.11.

In turn, `Clc1ccc(CSCCc2ccncc2)cc1` showed a z-score of -0.0832.

`CCOC(=O)C1=C(C)N=C2SC(C(=O)OC)=CC(=O)N2C1c1cccc(OC)c1` (stereo not given) showed a z-score of -0.132.

`CN(C)c1ccc(/C=C/c2ccc3ccccc3[n+]2C)cc1` had a z-score of 0.041.

As to `CN(C)S(=O)(=O)c1ccc(S(=O)(=O)NC2CCOC(C)(C)C2)cc1` (stereo not given), the z-score was -1.16.

For `CCCOc1ccc(N2C(=O)C3ON(c4ccccc4)C(c4ccc(O)c(OC)c4)C3C2=O)cc1` (stereo not given), the z-score came out at 0.27.

As for `O=C(NCCN1CCN(C(=O)Nc2ccccc2)CC1)Nc1ccccc1`, the z-score was -2.82.

In turn, `C/C(=N\Nc1cc(Cl)nc(C)n1)c1ccccc1` yielded a z-score of -0.103.

In turn, `CN(c1ccccc1C(=O)Nc1cccc(C(F)(F)F)c1)S(C)(=O)=O` came in with a z-score of 0.471.

For `O=C(N/N=C/c1cccc(F)c1)NC1CCCCC1`, the z-score was -0.14.

In the case of `CC(C)(C)SCCNS(=O)(=O)c1ccccc1`, the z-score was -0.219.

For `CCCCCCn1c(C(C)O)nc2ccccc21` (stereo not given), the z-score came to 0.247.

With `CC1(C)CC(=O)C(C2C3=C(CC(C)(C)CC3=O)Oc3ccccc32)=C(O)C1` (stereo not given), the z-score is 0.639.

Regarding `Cc1ccc(N2/C(=N/c3nc(C)cc(C)n3)NC(=O)CC2C(=O)O)cc1` (stereo not given), the z-score is -0.179.

The compound `O=C(CSc1nc(-c2ccco2)cc(C(F)(F)F)n1)N1CCc2ccccc2C1` displayed a z-score of -0.714.

Take `CCc1cc2cc3c(cc2nc1SCC(=O)Nc1nccs1)OCO3`: the z-score stood at 0.464.

Regarding `Cc1ccc(NC(=O)CC2C(=O)N(Cc3ccccc3)C(=S)N2NC(=O)c2ccccc2)c(C)c1` (stereo not given), the z-score is -0.193.

The compound `Cc1cc(C)c(C#N)c(SCC(O)CS(=O)(=O)Cc2ccccc2)n1` (stereo not given) returned a z-score of 0.126.

With `CCOC(=O)c1ccc(Nc2cc(C)nc(C)c2C(=O)OCC)cc1`, the z-score was determined as 0.455.

`O=c1[nH]c(SCCOc2ccccc2)nc2ccccc12` showed a z-score of -0.359.

With `CCCNS(=O)(=O)c1ccc(CCC(=O)Nc2cc(Cl)ccc2Oc2ccccc2)cc1`, the z-score is -0.151.

Regarding `CCOc1ccc(OCC)c(NC(=O)CN2CCN(c3cccc(C)c3)C(C)C2)c1` (stereo not given), the z-score is -0.000428.

With `COc1ccc(CC(=O)OCc2cc3cccc(C)c3[nH]c2=O)cc1`, the z-score was -0.297.

In turn, `COc1ccc(N=C2CCCN2CC(N)=O)cc1` had a z-score of 1.1.

In the case of `CC(=O)Nc1ccc(S(=O)(=O)N=S(C)C)cc1`, the z-score was -0.0545.

Consider `O=C(c1cc(Br)c(Br)s1)N1CCN(C/C=C/c2ccccc2)CC1`, for which the z-score is -0.553.

Turning to `CC1=C/C(=N\NC(=O)c2ccccc2)CC1`, the z-score is -0.0871.

Take `Cc1ccc(-c2nn(-c3ccccc3)cc2C(=O)Nc2ccc(C)c(S(=O)(=O)N3CCOCC3)c2)cc1`: the z-score is -0.104.

`C=CCNCCCCOc1ccc(Br)cc1C` displayed a z-score of -0.109.

Consider `Cc1cc(C(=O)CSc2nnnn2C)c(C)n1CCc1ccc(Cl)cc1`, for which the z-score was -1.09.

The record behind these values is PubChem BioAssay AID488969 (Vanderbilt High Throughput Screening Facility, 2010).
